The source gives no read counts; variants with many changes may rest on few reads.

The labels stand for the following.
B1: LINE1-full (parent)
chain: UACGUAGGUGGUUUUCCCCUGAUAGUGCUAAGGGGGCCUGGAAGUUUGGACUGGGCAGAGCUCAACACAGCGUGGCAAAGUGGCUGUGGCUAGACUGCCUCUCUGGAUUCCUCGUCACUCAGCAGGGCAUCUCUGAGAGAAAUGCC

In this data set the parent is B1. Nature of the data set: self-cleavage, relative activity (ratio to wild type); higher = more cleavage; in vitro, sequencing; the parent is a self-cleaving ribozyme.
Regarding UACGUAGGUGGUUCUCCCCUGAUAGUGCUAAGGGGGCCUGGAGGUUUGGACUGGGCAGAGCUCAACACAGCGUGGCAAAGUGGCUGUGGCUAGACUGCCUCUCUAGAUUCCUCGACACUCAGCAGGGCAUCUCUGAGAGAAAUGCC, the self-cleavage is 1.16.

On to UACGUAGGUGGUUCUCCCCUGAUAGUGCUAAGGGGGCCUGGAAGUUUGGACUGGGCUGAGCUCAACACAGCGUGGCAAAGUGGCUGUGGCUAAGCUGCCUCUCUGGAUUCCUCGUCACUCAGCAGGGCAUCUCUGAGAGAAAUGCC, for which the self-cleavage came to 0.09. As for UACGUAGGUGGUUCUCCCCUGAUAGUGCUAAGGGGGCCUGGAAGUUUGGGCUGGGCAGAGCUCAACACGGCGAGGCAAAGUGACUGUGGCUAGACUGCCUCUCUGGAUUCCUCGUCACUCAGCAGGGCUUCUCUGAGAGAAAUGCC, the figure is 0.08. Then UACGUAGGUGGUUCUCCCCUGAUAGUGCUAUGGGGGCCUGGAAGUUUGGACUGGGCAGAGCUCAACACAGCGUGGCAAAGUGGCUGUGGCUAGACAGCCUCUCUGGAUUCCUCGUCACUCAGCAGGGCGUCUCUGAGAGAAAUGCC, with 0.

As for UACGUAGGUGGUUCUCCCCUGAUAGUGCUAAGGGGGCCUGGAAGUUUGGGCUGGGCAGAGCUCAACACAGCGUGGCAAAGUGGCUGUGGCUAGUCUGCCUCUCUGGAUUCCUCGUCACCCAGCAGGGCAUCUCUGAGAGGAAUGCC, the self-cleavage was determined as 1.2.

Regarding UACGUAGGUGGUUCUCCCCUGAUAGUGCUAAGGGGGCCUGGAAGUUUGGACUGGGCUGAGCUCAACACAGCGUGGCAAAGUGGCCGUGGCUAGACUGCCUCUCUGGAUUCCUCGUCACUCAGCAUGGCAUCUCUGAGAGAAAUGCC, the self-cleavage stood at 0.12.

Take UACGUAGGUGGUUCUCCCCUGAUAGUGCUAAGGGGGCCUGGAGGUUUGGACUGGGCAGAGCUCAACACAGCGUGGCAAAGUGGCUGUGGCUAGACUGCCUCUCUGGAUUCCUCGUCACUCGGCAGGGCAUCUCUGAGAGAAAUGCU: the self-cleavage is 1.6. As for UACGUAGGUGGUUCUCCCCUGAUAGUGCUAAGGGGGCCUGGAAGUUUGGACUGGGCGGAGCUCAACACUGCGUGGCAAAGUGGCUGUGGCUAGACUGCCUCUCUGGAUUCCUCGUCACUCAGCAGGGCAUCUCUGAGAGUAAUGCC, the figure is 0.13. Then UACGUAGGUGGUUCUCCCCUGAUAGUGCUAAGGGGGCCUGGAGGUUUGGACUGGGCAGAGCUCAACACAGCGUGGCAAAGUGGCUGUGGCUAGACUGCCUCUCUGGAUUCCUCGUCACUCAGCAGGGCAUCUCUGAGAGGAAUGCC, with 1.9; and UACGUAGGUGGUUCUCCCCUGAUAGUGCUAAGGGGGCCUGGGAGUUCGGACAGGGCAGAGCUCAACACAGCGUGGCAAAGUGGCUGGGGCUAGACUGCCUCUCUGGAUUCCUCGUCACUCAGCAGGGCAUCUCUGAGAGAAAUGCC, with 0.84; and UACGUAGGUGGUUCUCCCCUGAUAGUGCUAAGGGGGCCUGGAAGUUUGGGCUGGGCAGAGCUCAACACGGCGUGGCAAAGUGGCUGUGGCUAGACUGCCUCUCUGGAUUCCUCGUCACUCAGCAUGGCAUCUCUGAGAGAAAUGCC, with 0.27. Then UACGUAGGUGGUUCUCCCCUGAUAGUGCUAAGGGGGCCUGGAUGUUUGGACUGGGCAGAGCUCAACACAGCGUGGCAAAGUGGCUGUGGCUAGACUGCCUCUCUGGAUUCCUCGUCACCCAGCAGGGCAUCUCUGAGAGAAAUGCC, with 0.95; and UACGUAGGUGGUUCUCCCCUGAUAGUGCUAAGGGGGCCUGGAAGUUUGGACUGGGCUGAGCUCAACACAGCGGGGCAAAGUGGCUGUGGCUAGACUGCCUCUCUGGAUUCCUCGUCACUCAGCAGGGCAUCUCUGAGAGAAAUGCC, with 0.22.

For the variant UACGUAGGUGGUUCUCCCCUGAUAGUGCUAAGGGGGCCUGGAAGUUUGGACUGGGCAGGGCUCAACGCAGCGUGGCAAAGUGGCUGUGGCUAGACUGCCUCUCUGGAUUCCUCGUCACUCAGCAGGGCAUCCCUGAGAGAAAUGCC, the self-cleavage was determined as 0. For the variant UACGUAGGUGGUUCUCCCCUGAUAGUGCUAAGGGGGCCUGGGAGUUUGGACUGGGCAGAGCUCAACACGGUGUGGCAAAGUGGCUGUGGCUAGACUGCCUCUCUGGAUUCCUCGUCACUCAGCAGGGCAUCUCUGAGAGAAAUGCC, the self-cleavage turned out to be 0.25.

Turning to UACGUAGGUGGUUCUCCCCUGAUAGUGCUAAGGGGGCCUGGAAGUUUGGACUGGGCUGAGCUCAACACAGCGUGGCAAAGAGGCUGUGGCUAGACUGCCUCUCUGGAUUCCUCGUCACUCAGCAGGGUAUCUCUGAGAGAAAUGCC, the self-cleavage amounted to 0.1.

Regarding UACGUAGGUGGUUCUCCCCUGAUAGUGCUAAGGGGGCCUGGAAGUUUGGACUGGGCAGGGCUCGACACAGCGUGGCUAAGUGGCUGUGGCUAGACUGCCUCUCUGGAAUCCUCGUCACUCAGCAGGGCAUCUCUGGGAGAAAUGCC, the self-cleavage came out at 0.

For UACGUAGGUGGUUCUCCCCUGAUAGUGCUAAGGGGGCCUGGGAGUUUGGACUGGGCAGAGCCCAACACAGCGUGGCAAAGUGGCUGUGGCUAGACUGCCUCUCUGGAUUCCUCGUCACUCGGCAGGGCAUCUCUGAGAGAAAUGCC, the self-cleavage was 0. As to UACGUAGGUGGUUCUCCCCUGAUAGUGCUAAGGGGGCCUGGAAGUUUGGACUGGGCAGGGCUCGACACAGCGUGGCAAAGUGGCUGUGGCUAGACUGCCUCUCUGGAUUCCUCGUCACUCAGCUGGGCAUCUCUGAGAGAAAUGCC, the self-cleavage was 0.07.

UACGUAGGUGGUUCUCCCCUGAUAGUGCUAAGGGGGCCUGGAGGUUUGGACUGGGCAGAGCUCAACACGGCGUGGCAAAGUGGCUGUGGCUAGACUGCCUCUCUGGAUUCCUCGUCACUCAGCAGGGCAUCUCUGAGAGAAAUGCC: the self-cleavage came to 0.34. Then UACGUAGGUGGUUCUCCCCUGAUAGUGCUAAGGGGGCCUGGAGGUUUGGACUGGGCAGAGCUCAACACAGCGUGGCAAAGUGGCUGUGGCUAGACUGCUUCUCUGGAUUCCUCGUCACUCAGCAGGGCAUCUCUGAGGGAAAUGCC, with 0.87; and UACGUAGGUGGUUCUCCCCUGAUAGUGCUAAGGGGGCCUGGAAGUUUGGACUGGGCAGGGCUCGACACAGCGUGGCAAAGUGGCUGUGGCUAGACUGCCUCUCUGGAUUCCUCGUCACUCAGCAGGGCAUCUCUGAGAGAAAUGCC, with 0. Then UACGUAGGUGGUUCUCCCCUGAUAGUGCUAAGGGGGCCUGGAGGUUUGGACUGGGCAGAGCUCAACACAGCGUGGCAAAGUGGCUGUGGCUAGACUGCCUCUCUGGGUUCCUCGUCACUCAGCAGGGCAUCUCUGAGAGAAAUGCC, with 0.84. Then UACGUAGGUGGUUCUCCCCUGAUAGUGCUAAGGGGGCCUGGUAGUUUGGACUGGGCAGAGCUCAACACAGCGUGGCAAAGUGGCUGUGGCUAGACUGCCUCUCUGGAUUCCUCGUCACUCAGCAGGGCAUCUCUGAGAGGAAUGCC, with 0.66; and UACGUAGGUGGUUCUCCCCUGAUAGUGCUAUGGGGGCCUGGAAGUUUGGACUGGGCAGAGCUCAACACAGCGUGGCAAAGUGGCUGUGGCUAGACUGCCUCUCUGGAUUCCUCGUCACUCAGCAGGGCAUCUCUGAGAGGAAUGCC, with 1.28.

Regarding UACGUAGGUGGUUCUCCCCUGAUAGUGCUAAGGGGGCCUGGGAGUUUGGACUGGGCAGAGCUCAACACAGCGUGGCAAAGUGGCUGUGGCUAGACUGCCUCUCUGGAUUCCUCGACACUCAGCGGGGCAUCUCUGGGAGAAAUGCC, the self-cleavage came out at 2.63. As for UACGUAGGUGGUUCUCCCCUGAUAGUGCUAAGGGGGCCUGGAGGUUUGGACUGGGCAGAGCUCAACACAGCGCGGCAAAGUGGCUGUGGCUAGACUGCCUCUCUGGAUUCCUCGUCACUCAGCAGGGCAUCUCUGAGAGAAAUGCC, the figure is 0.38.

Turning to UACGUAGGUGGUUCUCCCCUGAUAGUGCUAAGGGGGCCUGGGAGUUAGGACUGGGCAGAGCCCAACACAGCGUGGCAAAGUGGCUGUGGCUAGACUGCCUCUCUGGAUUCCUCGUCACUCGGCAGGGCAUCUCUGAGAGAAAUGCC, the self-cleavage was 0.13. As for UACGUAGGUGGUUCUCCCCUGAUAGUGCUAAGGGGGCCUGGAAGUUUGGCCUGGGCAGAGCUCAACACAGCGUGGCAAAGAGGCUGUGGCUAGACUGCCUCUCUGGAUUCCUCGUCACUCAGCAGGGCAUCUCUGAGAGAAAUGCC, the figure is 1.99; as for UACGUAGGUGGUUCUCCCCUGAUAGUGCUAAGGGGGCCUGGAAGUUUGGUCUGGGCAGAGCUCAACACAGCGUGGCAAAGUGGCUGUGGCUAGACUGCCUCUCUGGAUUCCUCGUCACUCAGCAGGGCAUCUCUGAGAGAAGUGCC, 0.66; as for UACGUAGGUGGUUCUCCCCUGAUAGUGCUAAGGGGGCCUGGAGGUUUGGACUGGGCAGAGCUCAACACAGCGUGGCAAAGUGGCUGUGGCUAGACUGCCUCUCUGGAUACCUAGCCACUCAGCAGGGCAUCUCUGAGAGAAAUGCC, 1.03. As for UACGUAGGUGGUUCUCCCCUGAUAGUGCUAAGGGGGCCUGGAAGUUUGGACUGGGCUGAGCUCAACACAGCGUGGCAAAGUGGCUGUGGCUAGACUGCCUCUCUGGAUUCCUCGUCACCCAGCAGGGGAUCUCUGAGAGAAAUGCC, the figure is 0. Then UACGUAGGUGGUUCUCCCCUGAUAGUGCUAGGGGGGCCUGGAAGUUUGGACUGGGCAGAGCUCAACACAGCGUGGCAGAGUGGCUGUGGCUGGACUGCCUCUCUGGAUUCCUCGUCACUCAGCAGGGCAUCUCUGAGAGAAAUGCC, with 0.98. In the case of UACGUAGGUGGUUCUCCCCUGAUAGUGCUAAGGGGGCCUGGAAGUUUGGACUGGGCUGAGCUCAACACAGCGUGGCAAAGUGGCUGUGGCUAGACUGCCUCUCUGGAUUCCACGUCACUCAGCAGGGCAUCUCUGAGAGAAAUGCC, the self-cleavage amounted to 0.22. For the variant UACGUAGGUGGUUCUCCCCUGAUAGUGCUAAGGGGGCCUGGAAGUUUGGUCUGGGCAGAGCUCAACACAGCGUGGCAAAGUGGCUGUGGCUAGACUGCCUCUCUGGAUUCCUCGUCACUCAGCAGGGCAUCUCAGAGAGAAAUGCC, the self-cleavage was determined as 0.66.

On to UACGUAGGUGGUUCUCCCCUGAUAGUGCUAAGGGGGCCUGGAAGUUUGGGCUGGGCAGAGCUCAACACAGCGUGGCAAAGUGGCUGUGGCUAGACUGCCUCUCUGGAUUCCUCGUCUCUCAGCAGGGCGUCUCUGAGAGAAAUGCC, for which the self-cleavage was found to be 1.45. For the variant UACGUAGGUGGUUCUCCCCUGAUAGUGCUAAGGGGGCCUGGGAGUUUGGACUGGGCAGAGCUCAACGCAGCGUGGCAAAGUGGCUGUGGCUAGACUGCCUCUCUGGAUUCCUCGUCACUCAGCAGGGCAUCUCUGAGAGAAAUGCC, the self-cleavage was determined as 0.27. As for UACGUAGGUGGUUCUCCCCUGAUAGUGCUAAGGGGGCCUGGAAGUUUGGACUGGGCCGAGCUCAACACAGCGUGGUAAAGUGGCUGUGGCUAGACUGCCUCUCUGGAUUCCUCGUCACUCAGCAGGGCAUCUCUGAGAGAAAAGCC, the figure is 0.06; as for UACGUAGGUGGUUCUCCCCUGAUAGUGCUAAGGGGGCCUGGGAGCUUGGACUGGGCAGAGCUCAACACAGCGUGGCAAAGUGGCUGUGGCUAGCCUGCCUCUCUGGAUUCCCCGUCACUCAGCAGGGCAUCUCUGAGAGAAAUGCC, 0.

For the origin of these results see the RNAGym collection of RNA variant scans (doi:10.7554/elife.90254).
